# Results from PubChem BioAssay AID1508624 (National Center for Advancing Translational Sciences (NCATS), 2021).
# The whole screen tested about 48,000 compounds, of which about 120 (0.25%) were called active. Another 4% or so got no clear call; they are omitted. Calls come from the whole dose curve; as a rule, active = well fitted activation curve with a large enough effect; inconclusive = small, poorly fitted or top-dose-only effect, or another doubt; inactive = no such curve, though single readings can be large or run the other way. This is one part of the list.
# Assay: Primary qHTS for Identification of Small Molecule Activators of Huntingtin-Antisense Promoter Activity; note: nearly all actives have a fitted effect of over 55% in size
# Details: HEK293 HTT-AS promoter firefly luciferase reporter (activity 0% = vehicle and -100% = no light), 24 h; series mostly up to 57.5 µM; activity change, positive = activation: at the top concentration
# Description: Assay Provider: Russell L. Margolis M.D.
# Department Neurology, Johns Hopkins University School of Medicine, Baltimore, MD
# Huntington's Disease (HD) is a neurodegenerative disorder caused by a CAG repeat expansion in exon 1 of huntingtin (HTT). While there are currently no disease-modifying treatments for HD, recent efforts have focused on development of nucleotide-based therapeutics to lower HTT expression. As an alternative to siRNA or oligonucleotide methods, we hypothesized that suppression of HTT expression might be accomplished by small molecules that either (1) directly decrease HTT expression by suppressing HTT promoter activity or (2) indirectly decrease HTT expression by increasing the promoter activity of HTT-AS, the gene antisense to HTT that appears to inhibit expression of HTT.
# We developed and employed a high throughput screen for modifiers of HTT and HTT-AS promoter activity using luminescent reporter HEK293 cells; of the 52,041 compounds tested, we identified 898 replicable hits. We used a rigorous stepwise approach to assess compound toxicity and the capacity of the compounds to specifically lower huntingtin protein in 5 different cell lines, including HEK293 cells, HD lymphoblastoid cells, mouse primary neurons, HD iPSCs differentiated into cortical-like neurons, and HD hESCs. We found no compounds which were able to lower huntingtin without lowering cell viability in all assays, though the potential efficacy of a few compounds at non-toxic doses could not be excluded.
# SEQUENCE No. (1, 2, 3, etc.); […] (e.g., Cells, Incubation, Reagent, etc.); VALUE and DESCRIPTION.
# 1; Reagent; 4 uL; 2,500 Hek293 luciferase reporter cells per wells
# 3; Compound; 23 nL; Control inhibitor / compound library
# 5; Reagent; 2.5 uL; Firefly Luc reagent; Dual-Glo Luciferase Reporter Assay System (Promega)
# 6; Time; 10 min; room temperature incubation
# 7; Detection; Luminescence; FLuc
# NOTES (numbers refer to sequence above)
# 1; High-throughput screening, measuring luminescence from a Hek293 luciferase reporter, was performed in 1,536 well white-walled tissue-culture treated plates. 2,500 cells were plated in 4 µL of Opti-MEM per well using a Multidrop Combi Reagent Dispenser (ThermoFisher).
# 2; Assay plates were cultured for 24 hours.
# 3; Control inhibitor (PTC124; final concentration of 50 uM) and compound library (at final concentrations of 460 nM - 57.5 uM) were added to the assay plate using the Kalypsis Pintool Robotic System equipped with 1536 pinheads.
# 4; Cells were then incubated for 24 hours at 37 degrees C prior to luminescence measurements.
# 5; In all cases, luminescence was measured using the Dual-Glo Luciferase Reporter Assay System (Promega) following the manufacturer's instructions.
# 6; Room temperature incubation.
# 7; Luminescence signal was obtained using the PerkinElmer ViewLux plate reader. Results were normalized to vehicle control (0% activity) and zero RLU (-100% activity).
row,Structure (SMILES),"activity change, positive = activation"
1,CCCCn1c(NCc2ccc(N(C)C)cc2)nc2ccccc21,inactive: -29.6%
2,O=C(CCOc1ccccc1)N(Cc1cccnc1)c1nc2c(F)cccc2s1,inactive: -7.06%
3,COc1ccc(CNC(=O)COCc2cc(-c3cccs3)on2)cc1,inactive: 3.42%
4,O=C(O)Cn1ccc2cc(S(=O)(=O)N3CCCCCC3)ccc21,inactive: -5.38%
5,Cc1ccc(-n2c(=O)c3c(c4cc(C)ccc4n3C)n(CC(=O)NCc3ccccc3)c2=O)cc1,inactive: -17%
6,CCN1CCc2nc3sc(C(=O)c4ccc(F)cc4)c(N)c3cc2C1,inactive: -17.9%
7,COc1ccccc1NC(=O)CSc1nc(-c2ccccc2F)nc2cc(=O)[nH]n12,inactive: -16.7%
8,COc1ccc(NC(=O)c2c(NCc3cccc(OC)c3)sc3c2CCCC3)cc1,inactive: -18.9%
9,Cc1ccc2occ(CC(=O)N(Cc3ccc(C(C)C)cc3)C3CCS(=O)(=O)C3)c2c1 (configuration not stated),inactive: -24.6%
10,O=C(CCC1N=C2c3ccccc3N=C(SCc3ccccc3F)N2C1=O)NCc1ccc(F)cc1 (configuration not stated),inactive: 0%
11,CC(C)(C)c1ccc(C(=O)N2CCC(c3nc4ccccc4o3)CC2)cc1,inactive: -14.2%
12,COc1ccc(-c2onc(C)c2C)cc1S(=O)(=O)NCC1CCN(Cc2cccc(F)c2)CC1,inactive: -24.7%
13,CC1=C(c2ccc(Cl)cc2)S(=O)(=O)N=C1N1CCC(C(=O)NCc2ccccc2F)CC1,inactive: -14.9%
14,COc1ccc(CCNc2nc3c(-c4cccc(C)c4)nnn3c3ccccc23)cc1OC,inactive: -12.6%
15,Cc1ccc(Cn2c(C(=O)O)c(CNC3CCCC3)c3ccc(C)cc32)cc1,inactive: -18.7%
16,Cc1ccc(OCc2ccc(-c3nc(C#N)c(NCc4ccccc4Cl)o3)o2)cc1,inactive: -31.3%
17,Cc1cc(C)cc(-n2c(SCC(N)=O)nc3c([nH]c4ccccc43)c2=O)c1,inactive: -33.4%
18,O=C(Nc1ccccc1C(F)(F)F)N1CCC(CN2CCc3ccccc3C2)CC1,inactive: -10.7%
19,COc1ccc(C)cc1NC(=O)C(Cc1ccccc1)NS(=O)(=O)c1cccs1 (configuration not stated),inactive: -25%
20,O=C(NC1CC(=O)N(c2cccc(F)c2)C1)c1cc2ccccc2o1 (configuration not stated),inactive: 6.08%
21,CCOC(=O)c1ccc(CN(Cc2ccccc2C)S(=O)(=O)c2ccc(F)c(C)c2)cc1,inactive: -17.9%

row,Structure (SMILES),"activity change, positive = activation"
1,COc1ccc(Nc2ncnc3c2cnn3-c2ccc(C)cc2)cc1Cl,inactive: -39.9%
2,Cc1ccc2nc(-c3cccc(NC(=O)c4cccc5ccccc45)c3)oc2c1,inactive: 15.7%
3,CCC(=O)N1CCc2cc(Br)cc(S(=O)(=O)CCC(=O)NCc3cccc(OC)c3)c21,inactive: 10.1%
4,Cc1ccccc1CSc1nc2ccsc2c(=O)n1CCC(C)C,inactive: -5.18%
5,COc1ccccc1NC(=O)c1oc2ccccc2c1NC(=O)C1CCCCC1,inactive: 13.6%
6,CC1C(=O)N2CCCc3cc(S(=O)(=O)N4CCC(C(N)=O)CC4)cc1c32 (configuration not stated),inactive: 6.21%
7,Cc1ccc2cc(CN(C(=O)c3cccc(Cl)c3)c3ccccc3)c(=O)[nH]c2c1,inactive: 2.31%
8,CCCSCCCNC(=O)c1ccc2c(c1)sc1nc(-c3ccc(OCC)cc3)cn12,inactive: -1.9%
9,COc1ccccc1Nc1nn2c(=O)c3ccc(C(=O)NCCC4=CCCCC4)cc3nc2s1,inactive: -87.9%
10,COc1cccc(CNC(=O)c2cnc(N3CCCCC3)c3ccccc23)c1,inactive: -16.8%
11,O=C(NCc1ccccc1F)C1CCN(c2nn3cc(-c4ccc(F)cc4)nc3s2)CC1,inactive: 26.5%
12,CN1c2ccc(Cl)cc2-c2nc(SCC(=O)NCc3ccccc3)ncc2S1(=O)=O,inactive: -29.8%
13,COc1ccc(Cn2ccnc2SCC(=O)NCc2ccco2)cc1,inactive: 1.47%
14,Cc1cccc(N2CCN(S(=O)(=O)c3ccc4c(c3)CC(=O)N4C)CC2)c1C,inactive: 0%
15,CCN(CC)CCNC(=O)Cn1nc(C)c2c(C)n(-c3ccccc3)nc2c1=O,inactive: 3.07%
16,CCn1c(=O)c2cc(C(=O)NCCCN3CCC(C)CC3)sc2c2ccccc21,inactive: -8.13%
17,COC(=O)c1ccccc1NC(=O)c1ccc2nc(CCc3ccccc3)oc2c1,inactive: 5.77%
18,Cc1ccc(Cl)cc1NC(=O)CSc1nc2ccccc2nc1Cc1ccccc1,inactive: -6.3%
19,CCOc1ccc(-n2c(SCC(=O)NC3CCCCC3)nc3c([nH]c4ccccc43)c2=O)cc1,inactive: -7.99%
20,Cc1ccc(-n2c(=O)c3c(cnn3C)n(CC(=O)Nc3ccccc3C)c2=O)cc1,inactive: -6.77%
21,Cc1cccc(Cn2cc(S(=O)(=O)c3cccc(C)c3)c(=O)c3cc(F)c(N4CCOCC4)cc32)c1,inactive: -8.32%

row,Structure (SMILES),"activity change, positive = activation"
1,COc1ccc2nc(C)cc(Nc3ccc(Cl)c(Cl)c3)c2c1,inactive: -55.7%
2,Cc1ccc(CNC(=O)CCCn2c(=O)[nH]c3ccc(Br)cc3c2=O)cc1,inactive: 1.84%
3,CCCCn1c(=NC(=O)c2cc3ccccc3o2)c(C(=O)OCC)cc2c(=O)n3ccccc3nc21,inactive: 13.3%
4,O=C(Cn1c(=O)oc2cc(S(=O)(=O)N3CCCCC3)ccc21)NCc1ccc(Cl)cc1,inactive: -35.6%
5,O=C(Oc1ccc(Cl)cc1)c1cc(-c2ccc3c(c2)OCCO3)on1,inactive: -6.9%
6,CCOc1cc2c(cc1OCC)C(CC(=O)O)N(C(=O)Nc1ccccc1C(F)(F)F)CC2 (configuration not stated),inactive: -5.4%
7,Cc1cc(C)nc(-n2nc(C)c3c2NC(=O)CC3c2cccc(O)c2)n1 (configuration not stated),inactive: -3.73%
8,Cc1cc2nn(-c3ccc(F)cc3)nc2cc1NC(=O)c1cccc2c(Cl)cccc12,inactive: 13.5%
9,CCOC(=O)c1ccc2c(c1)N(Cc1ccc(F)cc1Cl)C(=O)c1ccccc1S2(=O)=O,inactive: -24.9%
10,CCn1c(C)c(C)c2cc(C(=O)NCc3ccc(F)cc3)ccc21,inactive: -8.29%
11,COc1ccc(-n2cc(-c3ccccc3)c3c(Nc4ccc(OC)c(OC)c4)ncnc32)cc1,inactive: -14.1%
12,CCOC(=O)c1cn(CC(=O)Nc2ccc(OC)cc2OC)nn1,inactive: -3.51%
13,Fc1ccc(Nc2ncnc3onc(-c4ccc(Cl)cc4)c23)cc1Cl,inactive: -23%
14,O=C(C1CCCN(S(=O)(=O)c2ccc(Br)s2)C1)N1CCN(c2ccccc2F)CC1 (configuration not stated),inactive: -26.9%
15,COc1ccc(C)cc1NC(=O)NC(C)c1c(-n2cccc2)sc(C)c1C (configuration not stated),inactive: -36.8%
16,CCN(CC)CCCNc1sc(S(=O)(=O)c2ccccc2)nc1S(=O)(=O)c1ccc(Cl)cc1,inactive: -5.89%
17,CCOC(=O)c1c(C)[nH]c(CCC(=O)NC(C)c2ccccc2)c1C (configuration not stated),inactive: -2.74%
18,CCN(C(=O)c1sc2nc3n(c(=O)c2c1C)CCCCC3)c1ccc(OC)cc1,inactive: -8%
19,Cc1ccc(Cl)cc1NC(=O)Cn1c(=O)n(CCC(=O)NCc2ccc3c(c2)OCO3)c(=O)c2sccc21,inactive: -23.6%
20,CCCC(=O)Nc1nnc(S(=O)(=O)N2CCCCCC2)s1,inactive: -7.82%
